# From ChEMBL document CHEMBL4888484, “Replenishing the malaria drug discovery pipeline: Screening and hit evaluation of the MMV Hit Generation Library 1 (HGL1) against asexual blood stage Plasmodium falciparum ,using a nano luciferase reporter read-out” (2022)
# Among all 150,000 compounds or so, about 540 (0.36%) showed an effect of 50% or more. This is one part of the list.
# Tested on: Plasmodium falciparum
# Assay: Primary screen in NF54 nanoGlo assay, in single point, at 2uM, 72h; a lower Z score goes with more inhibition
# Format: functional, Erythrocyte
# Conditions: timepoint 72 hour
Compound,% Inhibition [%],Z score
CNc1cc(C(=O)N2CCN(Cc3[nH]cnc3C)C[C@H](O)C2)ccn1,-9,1.33
CCCc1cc(NS(=O)(=O)c2ccc3c(c2)CCCC3=O)n(C)n1,-12,1.66
CN(C)C(N)=NCCN(C)c1ccccc1,-1,0.23
Cn1c(C(C)(C)NCc2cc(O)cc(Cl)c2)nc2ccccc21,2,-0.38
COCCn1c(C)cc(=O)c(C(=O)NCCc2nc3ccccc3[nH]2)c1CC1CCCC1,19,-2.44
O=C(CCN1CCN(Cc2ccccc2)CC1)Nc1ccc2c(c1)CCC2,4,-0.63
COc1ccccc1/N=C(/NC(=O)c1ccccc1)N1CCN(CCC#N)CC1,-1,0.22
CCN(CC)c1nc(NCCO)c2ccccc2n1,-13,1.83
CC(C)n1nnnc1CN[C@H]1CCCC1(C)C,1,-0.15
COc1ccccc1NC(=O)Cn1nc2c(C)c(C)nc(C)n2c1=O,-12,2.21
CC1CCC(NC(=O)CN(C)C2CCCCC2)CC1 (stereo not drawn),-8,1.06
Cc1cnn([C@@H](C)c2nc(CC3CC3)nn2C(C)(C)C)c1,9,-1.24
COCc1ccc(CNCC(C)(C)S(C)(=O)=O)cc1,-3,0.37
Cc1oncc1CNC(=O)c1cccc(Cl)c1,-8,1.29
CN1CCN(C(=O)c2ccc3ncccc3c2)CC1=O,-12,1.74
O=C(c1cc(-n2ccnc2)ccn1)N1CCn2c1nc1ccccc12,-15,2.27
COc1ccc(CC(=O)N2CCN(S(=O)(=O)c3cc4c(cc3C)NC(=O)CO4)CC2)cc1,11,-1.08
CN(C)c1cccc(CCC(=O)N2CCC[C@H](N3CCCC3)CC2)c1,-11,1.29
CC(NC1CC(NC(=O)OC(C)(C)C)C1(C)C)c1nccn1C (stereo not drawn),4,-0.75
Clc1cnn(CCN2CCC[C@H](c3nnc4ccccn34)C2)c1,-1,0.19
Cn1ccnc1C(=O)N[C@H]1CC(=O)N(c2ccc(F)cc2)C1,-6,0.89
COc1cc(CN(C)CCc2ncc(C)s2)cc2c1OCCO2,3,-0.35

Compound,% Inhibition [%],Z score
Cc1ccncc1C(=O)N1CCO[C@H](c2cnn(C)c2)C1,1,-0.13
CC(C)Cc1nsc(N2CCOC3CCN(C)CC32)n1 (stereo not drawn),39,-1.25
CCc1ccccc1NC(=O)c1nn(CCOC)c2c1CNCC2,-15,2.13
CC(C)(C)c1cn2nc(N3CCS(=O)(=O)CC3)sc2n1,-3,0.39
COc1cc(C[C@@H]2C(=O)Nc3cc(Cl)ccc32)cc2c1OCCO2,-5,0.66
COc1cccc(NC(=O)c2cc3nccc(-c4cnn(C)c4C)n3n2)c1,-2,0.2
Cc1noc([C@]23CN(Cc4ccccc4)CC[C@H]2CN(C(=O)C(C)C)C3)n1,7,-1.09
CCOC[C@H]1CCCN1C(=O)c1cc(C)nc2ccccc12,-2,0.27
Cc1[nH]cnc1CNC(=O)[C@]1(c2ccccc2)CC12CCCC2,-1,0.16
Cc1cc(-c2csc(CCCNC(=O)OC(C)(C)C)n2)on1,-13,1.26
Fc1ccc(-c2cc3c(N4CCCCCC4)nccn3n2)cc1,33,-4.47
c1csc([C@@H]2CN(c3nccn4ccnc34)CCO2)n1,-9,1.27
O=C(NCC[C@H](O)C1CC1)c1cnccn1,-23,3.37
Cn1nccc1CS(=O)(=O)Cc1ccc(F)c(Br)c1,-2,0.27
COc1ccc2c(c1)CN(C(=O)COc1ccccc1)CC[C@H]1COC(=O)N21,-1,0.13
Cc1c(Cl)c(C(=O)N2[C@H]3CCNC[C@@H]2CC3)nn1C,-9,1.11
Cc1ccc(-c2ccc(=O)n(Cc3noc(C(=O)N4CCC(C)CC4)n3)n2)cc1,-12,1.44
Cc1cc(C(=O)NC2(CNC(=O)OC(C)(C)C)CCCC2)on1,9,-1.61
Cc1nn(-c2ccc3nnc(C)n3n2)c(C)c1CCC(=O)NCc1ccco1,-11,1.43
Cc1cccc(NC(=O)c2cc(C)c3c(c2)-c2ccccc2S(=O)(=O)N3C)c1C,-2,0.23
CC[C@H](C)NS(=O)(=O)c1ccc(F)cc1F,0,0.04
Cc1n[nH]c(=O)c(C(=O)N(C)Cc2ccccc2)c1C,-8,1.27
